Holding throughout (experiment): Primary Screen for Target Class Profiling of Small Molecule Inhibitors of Methyltransferases
Test [1] has as its target Glycine N-methyltransferase (Homo sapiens) (UniProt Q14749). Conditions: purified enzyme, MTase-Glo SAH luminescence; measured here: GNMT inhibition; at 40 µM; stronger effect = lower value. The method, boiled down:
(§1)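 Each enzyme was assayed with SAM and its substrate. SAH formation detected by MTase-Glo luminescence; single-point 40 uM screen[…].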

The target of test [2] is Guanidinoacetate N-methyltransferase (Homo sapiens) (UniProt Q14353). Conditions: purified enzyme, MTase-Glo SAH luminescence; measured here: GAMT inhibition; at 40 µM; stronger effect = lower value. The method, boiled down:
as §1

The target of test [3] is Histamine N-methyltransferase (Homo sapiens) (UniProt P50135). Conditions: purified enzyme, MTase-Glo SAH luminescence; measured here: HNMT inhibition; at 40 µM; stronger effect = lower value. The procedure, abridged:
as §1

The target in test [4] is Nicotinamide N-methyltransferase (Homo sapiens) (UniProt P40261). Conditions: purified enzyme, MTase-Glo SAH luminescence; measured here: NNMT inhibition; at 40 µM; stronger effect = lower value. The procedure, abridged:
as §1

Test [5] addresses Phenylethanolamine N-methyltransferase (Homo sapiens) (UniProt P11086). Conditions: purified enzyme, MTase-Glo SAH luminescence; measured here: PNMT inhibition; at 40 µM; stronger effect = lower value. The method, boiled down: as §1

For 32 compounds, activity change, negative = inhibition results are on record in PubChem BioAssay AID1745853 (National Center for Advancing Translational Sciences (NCATS), 2022).

The other results are listed elsewhere or left out. Further columns of the screen follow, without active or inactive calls.
% is scaled to controls: 0 for no effect and ±100 for the full control effect.

For `CN1CCN(c2ccc([N+](=O)[O-])c3no[n+]([O-])c23)CC1`, the activity change, negative = inhibition was -1.98% in test [1]; -3.03% in test [2]; 5.95% in test [3]; -9.77% in test [4]; -2.35% in test [5].

Regarding `CNc1ncc(C(=O)N2C[C@H]3COc4ccccc4C[C@@]3(C(=O)O)C2)cn1`, the activity change, negative = inhibition in test [1] is -2.48%; in test [2] it was -7.74%; in test [3], -2.87%; in test [4] it was -9.65%; in test [5], -4.08%.

On to `COCCCNC(=O)N1Cc2ccccc2-n2cccc2C1c1cccs1` (stereo unspecified), for which the activity change, negative = inhibition in test [1] is 4.03%; in test [2] it was 4.32%; in test [3] it was -6.84%; in test [4] it was -4.99%; in test [5], 3.25%.

Consider `Cc1c(C(=O)Nc2cccc(C(F)(F)F)c2)cc(-c2ccccc2)n1CCCN1CCOCC1`, for which the activity change, negative = inhibition in test [1] was 3.26%; in test [2] it was -7.61%; in test [3] it was -18.3%; in test [4], -21.2%; in test [5] it was -7.08%.

Regarding `CC(C)(C)OC(=O)NC1[C@H]2CNC[C@@H]12` (stereo partly specified), the activity change, negative = inhibition in test [1] is 0.311%; in test [2], 9.69%; in test [3] it was 3.7%; in test [4], -5.38%; in test [5], 5.12%.

In the case of `CC(N[C@H]1C[C@@H]1c1ccccc1)c1ccc2c(c1)OCCO2` (stereo partly specified), the activity change, negative = inhibition in test [2] is -3.12%; in test [4], -17.1%; in test [5], -12.9%.

`COc1ccc(CNC(=O)/C=C/c2ccc3[nH]cc(CCN(C)C)c3c2)cc1`: the activity change, negative = inhibition in test [1] is -8.1%; in test [2], 7.62%; in test [3], -86.2%; in test [4], -4.74%; in test [5] it was 5.98%.

As to `C/C=C/CN1CC2ON=C(C(=O)O)C2C1` (stereo unspecified), the activity change, negative = inhibition was -3.46% in test [1]; -5.41% in test [2]; -0.049% in test [3]; 1.65% in test [4]; -4.43% in test [5].

For `COc1cc2c(cc1OCc1ccncc1)NC(=O)C21CCN(Cc2ccccc2)CC1`, the activity change, negative = inhibition in test [1] was -22.4%; in test [2], -8.36%; in test [3], -32.1%; in test [4], -42.5%; in test [5], 0.56%.

On to `CCCNC(=O)N1Cc2ccccc2-n2cccc2C1c1cccs1` (stereo unspecified), for which the activity change, negative = inhibition is 7.06% in test [1]; 0% in test [2]; -7.79% in test [3]; -5.17% in test [4]; 2.4% in test [5].

Regarding `COc1ccc(NC(=O)N2Cc3ccccc3-n3cccc3C2c2cccc(C)c2)cc1` (stereo unspecified), the activity change, negative = inhibition was 1.08% in test [1]; -3.27% in test [2]; -5.03% in test [3]; -8.07% in test [4]; -3.19% in test [5].

For `Cc1nnc2n1-c1sc(CCc3ccc(CC(C)C)cc3)cc1C(c1ccccc1Cl)=NC2C` (stereo unspecified), the activity change, negative = inhibition in test [1] is -7.61%; in test [2], 4.25%; in test [3], -1.34%; in test [4], -50.6%; in test [5], 3.41%.

In the case of `C[N+](C)(C)CC#CCN1CCCC1=O`, the activity change, negative = inhibition was -14.5% in test [1]; -1.49% in test [2]; -1.76% in test [3]; -11.3% in test [4]; 3.03% in test [5].

In the case of `COc1cc2c(cc1Oc1ccccc1)NC(=O)C21CCN(c2nc(C)cnc2C)CC1`, the activity change, negative = inhibition in test [1] is -12.9%; in test [2], -11.9%; in test [3], -6.48%; in test [4], -11.2%; in test [5] it was -6.91%.

With `NC(=O)c1ccc(OCC(O)CN2CC=C(c3ccc(F)cc3)CC2)cc1` (stereo unspecified), the activity change, negative = inhibition in test [1] was 8.56%; in test [2] it was 10.3%; in test [3] it was -1.52%; in test [4], -8.97%; in test [5], -4.75%.

With `CCOc1ccc(C2c3cccn3-c3ccccc3CN2C(=O)Nc2cc(C)cc(C)c2)cc1` (stereo unspecified), the activity change, negative = inhibition in test [1] was -5.76%; in test [2], 1.29%; in test [3], -3.41%; in test [4] it was -3.56%; in test [5], -0.956%.

For `COc1ccc(NC(=O)N2Cc3ccccc3-n3cccc3C2c2ccc(C)cc2)cc1OC` (stereo unspecified), the activity change, negative = inhibition stood at 8.99% in test [1]; 0% in test [2]; 7.51% in test [3]; 1.91% in test [4]; 2.61% in test [5].

For `Clc1ccc([C@]23CNC[C@H]2C3)cc1Cl`, the activity change, negative = inhibition in test [1] was 0.275%; in test [2] it was 1.75%; in test [3], -15.6%; in test [4], -12%; in test [5], -88.6%.

Turning to `O=C(Nc1ccc(F)cc1)N1Cc2ccccc2-n2cccc2C1c1ccc(F)cc1` (stereo unspecified), the activity change, negative = inhibition in test [1] was 0.543%; in test [2], 2.16%; in test [3] it was 0.731%; in test [4] it was -1.22%; in test [5], 5.78%.

Take `COc1ccccc1NC(=O)N1Cc2ccccc2-n2cccc2C1c1ccc(SC)cc1` (stereo unspecified): the activity change, negative = inhibition in test [1] is 1.17%; in test [2], 0.553%; in test [3], -0.65%; in test [4] it was 1.79%; in test [5] it was 6.43%.

As for `COc1ccn(C)c(=O)c1C#N`, the activity change, negative = inhibition in test [2] was 8.76%; in test [4], -3.74%; in test [5] it was 8.3%.

`COc1ccc(C2c3cccn3-c3ccccc3CN2C(=O)NCc2ccc(F)cc2)cc1` (stereo unspecified): the activity change, negative = inhibition is 11.1% in test [1]; 0% in test [2]; 8.28% in test [3]; 8.16% in test [4]; 3.56% in test [5].

With `CCOC(=O)CC1(NC(=O)N2Cc3ccccc3-n3cccc3C2c2cccs2)CCCCC1` (stereo unspecified), the activity change, negative = inhibition came out at 9.75% in test [1]; 0% in test [2]; 8.1% in test [3]; 2.91% in test [4]; 2.97% in test [5].

Take `Cc1cc(C)cc(NC(=O)N2Cc3ccccc3-n3cccc3C2c2ccccc2)c1` (stereo unspecified): the activity change, negative = inhibition is 6.42% in test [1]; 0% in test [2]; -1.7% in test [3]; 0.15% in test [4]; 3.49% in test [5].

Take `CCC1c2cccn2-c2ccccc2CN1C(=O)Nc1cc(F)ccc1F` (stereo unspecified): the activity change, negative = inhibition in test [1] was -1.52%; in test [2] it was 0%; in test [3], -3.81%; in test [4] it was -8.13%; in test [5], -0.496%.

Turning to `CCOC(=O)NC(C)(C)Cc1ccc(Cl)cc1`, the activity change, negative = inhibition in test [1] is -3.81%; in test [2], -3.6%; in test [3] it was 12.2%; in test [4], -13.3%; in test [5] it was -0.24%.

For the compound `CCOC(=O)Cc1ccc(NC(=O)N2Cc3ccccc3-n3cccc3C2CC)cc1` (stereo unspecified), the activity change, negative = inhibition in test [1] was -4.04%; in test [2], 0%; in test [3], -5.8%; in test [4], -1.68%; in test [5], 0.812%.

Take `NC(=O)CN1CC(O)CC1=O` (stereo unspecified): the activity change, negative = inhibition is -2.1% in test [1]; 4.44% in test [2]; -0.489% in test [3]; -6.53% in test [4]; 6.08% in test [5].

On to `COc1ccccc1-c1cc([C@H]2CN3CC[C@H]2C[C@@H]3CNC(=O)N2CCOCC2)n(C)n1`, for which the activity change, negative = inhibition in test [1] was -0.906%; in test [2], 1.72%; in test [3], -0.276%; in test [4], -0.153%; in test [5] it was -5.88%.

`Cc1cccc(C2c3cccn3-c3ccccc3CN2C(=O)NCc2ccco2)c1` (stereo unspecified): the activity change, negative = inhibition was 3.75% in test [1]; 3.78% in test [2]; -2.8% in test [3]; -4.47% in test [4]; 1.04% in test [5].

For `COC1C=CC23c4cc5c(cc4COC2(O)CN(C)C3C1)OCO5` (stereo unspecified), the activity change, negative = inhibition was 3.22% in test [1]; -0.247% in test [2]; 8.92% in test [3]; -13.7% in test [4]; 3.35% in test [5].

For the compound `CC(C)(C)CC(=O)N1C[C@@H]2C[C@H](C1)c1ccc(NC(=O)c3ccco3)c(=O)n1C2`, the activity change, negative = inhibition in test [1] was -10.7%; in test [2] it was -2.75%; in test [3], -3.86%; in test [4], -4.98%; in test [5], -1.79%.
